N[C@@H](Cc1ccc(O)cc1)C(=O)O
solubility (mole fraction)
Conditions	283.15 K	288.15 K	293.15 K	298.15 K	303.15 K	308.15 K	313.15 K	318.15 K	323.15 K	328.15 K
in DMF	0.000477	0.000486	0.000522	0.000528	0.000619	0.000645	0.000665	0.000745	0.000767	0.000855
in acetonitrile	2.98e-06	3.4e-06	4.52e-06	6.13e-06	7.71e-06	1.08e-05	1.41e-05	1.68e-05	2.26e-05	2.88e-05
in ethyl acetate	0.00206	0.00239	0.00258	0.00285	0.0034	0.00357	0.00394	0.00473	0.005	0.00557
in ethylene glycol	3.1e-05	3.61e-05	4.87e-05	6.24e-05	9.14e-05	0.000113	0.00014	0.000194	0.000239	0.000325
in isopropanol	5.54e-06	6.1e-06	8.97e-06	1.05e-05	1.24e-05	1.69e-05	1.96e-05	2.24e-05	2.93e-05	3.55e-05
in n-butanol	9.95e-07	1.55e-06	1.7e-06	2.09e-06	2.87e-06	3.19e-06	4.32e-06	5.18e-06	6.55e-06	8.19e-06

Source: BigSolDB 2.1
